Screen size: about 350,000 compounds; about 9,900 (2.8%) were called active. Inconclusive results, whose numbers are uncertain, are shown with a selection of clear calls. The call rests on the fitted dose curve; in most records, active means well fitted activation curve with a large enough effect; inconclusive means small, poorly fitted or top-dose-only effect; inactive means no such curve, though single readings can be large or run the other way. Potencies of inconclusive entries are left out as doubtful fits.
test: A quantitative high throughput screen for small molecules that induce DNA re-replication in MCF 10a normal breast cells.; further: nearly all actives have a fitted effect of over 50% in size; on activity, positive = re-replication: % of control where 0% means no effect; settings: MCF 10A DNA re-replication, Hoechst nuclear intensity, 48 h; activity, positive = re-replication: at 46.1 µM (top of the series)
Potency means the concentration at half of the fitted maximal effect; tags describe the fitted curve by direction and shape.

Row | Structure (SMILES) | activity, positive = re-replication | Potency
1 | C/C(=N\Nc1cc(N2CCOCC2)ncn1)c1ccccc1 | inactive: 1.28% | 
2 | Cn1c(=S)[nH]c(=O)c2ncc(=O)[nH]c21 | inactive: -3.88% | 
3 | Cc1ccc2nc(SCC(=O)Nc3ccc(F)c([N+](=O)[O-])c3)[nH]c2c1 |  | inconclusive [activator, partial curve, poor fit]
4 | O=S1(=O)[C@H]2C[C@@H]3C=C[C@]2(CN1Cc1ccc(C(F)(F)F)cc1)O3 |  | inconclusive [activator, full curve, poor fit]
5 | Cc1ccc([C@@H]2CC=C(C(=O)O)[C@H](c3cccc(Cl)c3)N2S(=O)(=O)c2ccc(C)cc2)cc1 |  | inconclusive [activator, partial curve, poor fit]
6 | CCN(CC)c1cccc(OCC(=O)N(C)CCC#N)c1 |  | inconclusive [activator, single point]
7 | COc1ccc(OCC(=O)NNC(=S)NC(=O)c2ccc([N+](=O)[O-])cc2)cc1 |  | inconclusive [activator, single point]
8 | COc1ccc(C2=NN(C(=O)COC(=O)c3ccc(NC(=O)CC#N)cc3)C(c3ccco3)C2)cc1 (stereo not drawn) |  | inconclusive [activator, single point]
9 | O=C1S/C(=C\c2ccc(O)c([N+](=O)[O-])c2)C(=O)N1Cc1cccc([N+](=O)[O-])c1 |  | inconclusive [activator, partial curve, poor fit]
10 | CC(C)(C)C1CCC(=NNC(=O)c2cc(-c3ccccc3)n[nH]2)CC1 (stereo not drawn) |  | inconclusive [activator, single point]
11 | CC(=O)Nc1ccc(C(=O)CN2CCN(c3ccccc3)CC2)cc1 | inactive: -13.3% | 
12 | CC(=O)N1N=C(c2ccccc2)OC1c1ccc([N+](=O)[O-])s1 (stereo not drawn) |  | inconclusive [activator, single point]
13 | Cc1ccccc1NC1=CC(=O)CC(C)(C)C1 | inactive: -6.23% | 
14 | Cc1ccc(C)n1-n1c(C)nc2sc3c(c2c1=O)CCCCC3 |  | inconclusive [activator, single point]
15 | CCCNc1nc(-c2cc(C(=O)Nc3ccccc3)on2)cc(C(C)C)n1 | inactive: 13.7% | 
16 | O=C(Nc1ccccc1Cl)C1(c2ccccc2)CC1(Cl)Cl (stereo not drawn) |  | inconclusive [activator, full curve, poor fit]
17 | CCOC(=O)c1ccc(Nc2cc(C)nc(N3CCOCC3)n2)cc1 | inactive: 8.03% | 
18 | CCOC(=O)c1c(NC(=O)CN2CCCCC2)sc(CN(C)C)c1-c1ccccc1 |  | active: 25.9 µM
19 | CCCCOC(=O)c1ccc(NC(=O)COC(=O)CSc2nc(C)cc(C)n2)cc1 |  | inconclusive [activator, single point]
20 | CCOc1ccccc1C(=O)OCC(=O)Nc1nnc(-c2ccccc2)o1 | inactive: 12.2% | 
21 | Cn1c(=O)cc(NCCc2ccccc2)[nH]c1=O |  | inconclusive [activator, single point]
22 | O=[N+]([O-])c1ccc(-c2nc(NCc3ccccc3)c3ccccc3n2)cc1 |  | inconclusive [activator, full curve]

Row | Structure (SMILES) | activity, positive = re-replication | Potency
23 | CCCCN1C(=O)C(C#N)CC2=C1CC(C)(C)CC2=O (stereo not drawn) | inactive: -17.7% | 
24 | CC1(C)CC(=O)C2=C(C1)Nc1ncnn1C2c1ccccn1 (stereo not drawn) |  | inconclusive [activator, partial curve, poor fit]
25 | COc1cccc(CNC(=O)COC(=O)c2cccc(S(=O)(=O)N3CCN(C(C)=O)CC3)c2)c1 | inactive: -14.4% | 
26 | COc1ccc(NC(=O)CNC(=O)Cc2ccccc2)cc1OC | inactive: 2.51% | 
27 | CCOC(=O)c1c(NC(C)=O)sc2c(O)c(CN3CCN(CC)CC3)ccc12 |  | inconclusive [activator, partial curve, poor fit]
28 | O=C(OCC1OC(OC(=O)c2cc(O)c(O)c(OC(=O)c3cc(O)c(O)c(O)c3)c2)[C@@H](OC(=O)c2cc(O)c(O)c(OC(=O)c3cc(O)c(O)c(O)c3)c2)C(OC(=O)c2cc(O)c(O)c(OC(=O)c3cc(O)c(O)c(O)c3)c2)C1OC(=O)c1cc(O)c(O)c(OC(=O)c2cc(O)c(O)c(O)c2)c1)c1cc(O)c(O)c(OC(=O)c2cc(O)c(O)c(O)c2)c1 (stereo partly drawn) | inactive: -11.1% | 
29 | O=C(CSCCO)Nc1cc(C(F)(F)F)ccc1Cl | inactive: 21.3% | 
30 | CCCNC(=S)N1CCN(c2nc(C)nc3sc4c(c23)CCCC4)CC1 |  | inconclusive [activator, single point]
31 | COc1ccc(OCc2cc(/C=N\NC(=O)c3ccccc3)ccc2OC)cc1 |  | active: 8.2 µM
32 | O=C(CCc1nnc(CCCc2ccccc2)o1)NCCCC1CCCC1 | inactive: 7.2% | 
33 | Oc1ccc(C[C@H]2CNC(=S)N2CC2CCCN2C[C@H](Cc2ccc(O)cc2)N2C[C@H](Cc3ccccc3)N(CC3CCCCC3)C2=S)cc1 (stereo partly drawn) |  | inconclusive [activator, single point]
34 | CN1CCN(CCCN2c3ccccc3Sc3ccc(Cl)cc32)CC1 |  | active: 11.6 µM
35 | C/C(=C\c1ccccc1F)C1Nc2cccc3cccc(c23)N1 |  | inconclusive [activator, single point]
36 | S=C(Nc1ccc(Cl)cc1Cl)NC1CCCCC1 | inactive: -0.837% | 
37 | Cc1ccc(O)c(C(CC(=O)NC2CCCCC2)c2ccccc2)c1 (stereo not drawn) |  | inconclusive [activator, single point]
38 | O=C(c1ccc([N+](=O)[O-])o1)N1CCc2ccccc2C1 | inactive: 2.05% | 
39 | COc1ccc(S(=O)(=O)Nc2ccccc2C(=O)NCc2cccnc2)cc1OC | inactive: -0.258% | 
40 | CCOC(=O)c1sc(NC(=O)CSc2ncccn2)c(C#N)c1C |  | active: 14.6 µM
41 | Cc1ccc(-c2cc(C(=O)NCc3ccc4c(c3)OCO4)no2)cc1 |  | inconclusive [activator, single point]
42 | O=C(c1nc2ccc(Cl)cn2c1CN1CCC(CO)CC1)N1CCc2ccccc2C1 |  | inconclusive [activator, single point]
43 | Cc1ccc(S(=O)(=O)N2[C@@H](c3ccc(C(C)(C)C)cc3)C(C(=O)O)=CC[C@H]2c2cccs2)cc1 |  | inconclusive [activator, single point]

Source: PubChem BioAssay AID624296 (National Center for Advancing Translational Sciences (NCATS), 2012)
